Over roughly 33,000 sequences, “E-score (-0.5 to 0.5)” has its median near -0.012; the highest 2% begin near 0.29. The list shows a part of the results.
molecular target: T1, Ybr033w (UniProt P38073); assay: PBM E-score (8-mer binding enrichment) (E-score (-0.5 to 0.5)); higher = stronger / more preferred TF binding; most listed sequences are background and not binding sites; details: protein concentration: 200 nM; construct: GST-full length
T1 sequence: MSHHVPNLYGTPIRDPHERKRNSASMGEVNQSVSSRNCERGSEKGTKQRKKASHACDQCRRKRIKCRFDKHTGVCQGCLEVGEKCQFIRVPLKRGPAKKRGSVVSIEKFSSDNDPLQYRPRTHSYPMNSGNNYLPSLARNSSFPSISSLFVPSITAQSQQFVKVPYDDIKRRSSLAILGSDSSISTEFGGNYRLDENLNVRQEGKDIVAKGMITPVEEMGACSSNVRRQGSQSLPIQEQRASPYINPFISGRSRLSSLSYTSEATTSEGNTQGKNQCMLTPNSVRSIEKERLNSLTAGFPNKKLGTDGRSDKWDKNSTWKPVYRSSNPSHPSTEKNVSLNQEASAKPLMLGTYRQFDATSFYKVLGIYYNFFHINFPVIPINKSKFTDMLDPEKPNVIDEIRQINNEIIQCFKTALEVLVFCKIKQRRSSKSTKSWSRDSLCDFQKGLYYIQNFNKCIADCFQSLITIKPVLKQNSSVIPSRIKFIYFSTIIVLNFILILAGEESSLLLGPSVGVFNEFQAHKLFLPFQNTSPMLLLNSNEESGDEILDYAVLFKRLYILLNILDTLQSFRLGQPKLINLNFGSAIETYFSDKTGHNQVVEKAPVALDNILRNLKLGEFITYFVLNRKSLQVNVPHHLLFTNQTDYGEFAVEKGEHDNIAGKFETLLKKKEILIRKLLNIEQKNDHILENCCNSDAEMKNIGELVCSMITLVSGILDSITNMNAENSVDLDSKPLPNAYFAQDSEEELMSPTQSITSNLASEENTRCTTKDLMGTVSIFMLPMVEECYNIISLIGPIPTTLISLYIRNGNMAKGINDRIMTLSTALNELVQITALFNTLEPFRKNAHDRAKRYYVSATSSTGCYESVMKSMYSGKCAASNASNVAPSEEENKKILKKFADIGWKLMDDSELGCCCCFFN
Outline: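 Each ungapped eight-base word and its reverse complement, pooled, received an E-score from the Universal PBM Analysis Suite. Underlying scans, normalised with masliner, recorded fluorescent anti-GST bound to GST-tagged yeast transcription factors. These were applied at about 100-200 nM to universal all-10-mer Agilent arrays double-stranded by primer extension.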

Going from AATGTAAC to GGAGAGGA, the “PBM E-score” value falls from 0.119 to -0.238.

Going from AGCAAATC to TAAATGTA, the “PBM E-score” value rises from 0.126 to 0.192.

Going from GAGGGTTA to CCAATCCG, the “PBM E-score” value rises from -0.0439 to 0.0149.

First: AGGGTCAC
Second: ATCTAGAC
The “PBM E-score” value of the first is lower: -0.281 for the first, 0.107 for the second.

First: CTCGAAGA
Second: CATCTCAA
The “PBM E-score” value of the first is lower: -0.228 for the first, 0.119 for the second.

Compared with GACTTCCA, GTCTGAGA is lower in “PBM E-score” value: -0.0265 for the first, -0.163 for the second.

Compared with AAATCTCA, CAGAATAC is lower in “PBM E-score” value: 0.145 for the first, 0.0363 for the second.

Compared with TGACCGCA, CGCTCAGC is lower in “PBM E-score” value: -0.102 for the first, -0.135 for the second.

Going from CGAGTGAA to CGTCTGCA, the “PBM E-score” value falls from 0.033 to -0.115.

Compared with GAAATGTA, TGAATTCA is lower in “PBM E-score” value: 0.141 for the first, 0.102 for the second.

Compared with AGATGTTA, GGACATCA is lower in “PBM E-score” value: 0.0254 for the first, 0.00371 for the second.

First: AAAAAGTT
Second: AGATATGA
The “PBM E-score” value of the first is higher: 0.314 for the first, 0.137 for the second.

Going from AAACGCCT to CAGATACG, the “PBM E-score” value rises from -0.175 to -0.134.

First: GATCGTGA
Second: CCACGTCA
The “PBM E-score” value of the first is higher: -0.0504 for the first, -0.104 for the second.

Going from AAAGGAGA to AAGGATAA, the “PBM E-score” value rises from 0.00524 to 0.219.

Going from GCTTGACC to GGAAGCGA, the “PBM E-score” value rises from -0.149 to -0.072.

Compared with ACCGGCTA, ATGTCCGG is lower in “PBM E-score” value: -0.125 for the first, -0.131 for the second.

Going from AGAAACGC to GGCAGGTA, the “PBM E-score” value falls from -0.0719 to -0.169.

First: CCAAGGTA
Second: AAAGACTC
The “PBM E-score” value of the first is lower: -0.00263 for the first, 0.0554 for the second.

Going from CCATGCCG to GTGTTAAA, the “PBM E-score” value rises from -0.107 to 0.121.

First: ATATTAGA
Second: ATATCGTA
The “PBM E-score” value of the first is higher: 0.273 for the first, 0.0551 for the second.

Compared with GTTAGGTA, AAGGACAG is lower in “PBM E-score” value: 0.163 for the first, -0.0937 for the second.

First: CTGCGAAC
Second: AATGGAGG
The “PBM E-score” value of the first is lower: -0.182 for the first, -0.111 for the second.

Going from AGATATAC to ATAGAGCC, the “PBM E-score” value falls from 0.137 to -0.14.

First: ACAGGAGG
Second: GCGACGGA
The “PBM E-score” value of the first is lower: -0.256 for the first, -0.00479 for the second.

First: ACAACTAC
Second: GTAGTAAA
The “PBM E-score” value of the first is lower: 0.126 for the first, 0.188 for the second.

Compared with CTATCAAG, GGGGCCTA is lower in “PBM E-score” value: 0.0801 for the first, -0.389 for the second.

Going from GTCTTCAC to ATAATTAC, the “PBM E-score” value rises from -0.185 to 0.353.

Compared with ACGATAAT, ACATAATG is higher in “PBM E-score” value: 0.163 for the first, 0.214 for the second.

Going from GTCTTCCA to GCACGTAA, the “PBM E-score” value rises from -0.0731 to -0.0247.

Going from CGCTATAG to ATCCGCAG, the “PBM E-score” value rises from -0.0982 to 0.155.

First: CTGTGGTC
Second: AGCATTAA
The “PBM E-score” value of the first is lower: -0.109 for the first, 0.0878 for the second.

Going from AAACCCCA to ACGCGCGC, the “PBM E-score” value falls from -0.0215 to -0.0247.

Compared with CTATCAGA, AGGCTGGG is lower in “PBM E-score” value: -0.0376 for the first, -0.165 for the second.

Going from ACCTCTAA to CGATATTC, the “PBM E-score” value rises from -0.0182 to 0.123.

First: AATACATG
Second: TGTATTAA
The “PBM E-score” value of the first is lower: 0.222 for the first, 0.272 for the second.

Going from ACGACCAG to CGAAACTC, the “PBM E-score” value rises from -0.158 to 0.0214.

First: ATAGACTG
Second: AGCAGGAA
The “PBM E-score” value of the first is lower: -0.0524 for the first, 0.0849 for the second.

Compared with AAGGATCT, CCGGAACG is lower in “PBM E-score” value: -0.0153 for the first, -0.0381 for the second.

Going from CTGTGATA to ATCCGAAT, the “PBM E-score” value rises from 0.0572 to 0.257.

Compared with CGTCGTCA, TCGAACCA is higher in “PBM E-score” value: -0.143 for the first, -0.0626 for the second.

Going from ACCGATTC to GGCGGTTA, the “PBM E-score” value falls from -0.0871 to -0.122.

First: GCTCGTAC
Second: GCAAGAGA
The “PBM E-score” value of the first is higher: -0.0573 for the first, -0.134 for the second.

Source: the supplement of paper PMC3334620
